# Assay results from article PMC6919601, “Identification of Plasmodium dipeptidyl aminopeptidase allosteric inhibitors by high throughput screening” (PLoS ONE, 2019).
# “And” between values parts separate entries of the source, which are not always exact repeats. Equal values may be shown once. About 230 (0.21%) of roughly 110,000 compounds showed an effect of 50% or more. The list shows a part of the results.
# Molecular target: DPAP1 (Plasmodium falciparum, UniProt Q8IIJ9)
# Assay: primary screen, percent inhibition; read by cleavage of a fluorogenic dipeptide substrate; higher = more effect of the substance
# Set-up: species or system P. falciparum D10 trophozoite lysates; single well
# 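Further: 30 min substrate incubation versus DMSO and 10 µM JCP410 controls.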
# DPAP1, sequence (Q8IIJ9 whole entry, looked up): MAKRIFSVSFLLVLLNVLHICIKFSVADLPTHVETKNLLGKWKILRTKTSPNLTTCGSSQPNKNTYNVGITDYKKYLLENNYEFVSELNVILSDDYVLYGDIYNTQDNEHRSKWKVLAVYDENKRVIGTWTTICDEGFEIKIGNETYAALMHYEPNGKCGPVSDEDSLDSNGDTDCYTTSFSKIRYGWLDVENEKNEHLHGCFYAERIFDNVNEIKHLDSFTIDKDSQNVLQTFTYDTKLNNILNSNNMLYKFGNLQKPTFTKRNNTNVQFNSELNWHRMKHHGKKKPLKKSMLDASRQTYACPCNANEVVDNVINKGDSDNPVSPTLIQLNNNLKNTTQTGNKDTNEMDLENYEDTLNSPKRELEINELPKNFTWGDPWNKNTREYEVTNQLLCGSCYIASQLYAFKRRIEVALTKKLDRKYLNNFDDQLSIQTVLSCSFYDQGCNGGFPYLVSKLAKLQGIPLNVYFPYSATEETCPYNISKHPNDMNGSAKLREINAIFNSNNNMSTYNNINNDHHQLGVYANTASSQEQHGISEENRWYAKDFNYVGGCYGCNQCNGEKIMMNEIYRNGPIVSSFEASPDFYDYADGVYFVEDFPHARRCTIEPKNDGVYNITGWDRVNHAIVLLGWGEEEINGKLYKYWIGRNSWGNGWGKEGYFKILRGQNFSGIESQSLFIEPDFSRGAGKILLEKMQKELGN
row,SMILES,% Inhibition @ 10 uM
1,COc1ccc(CCCC(=O)Nc2ccc(F)cc2)cc1C,3.86%
2,CCOc1ccc(-c2nc(-c3ccc(C)cc3)no2)cc1,7.76%
3,Cc1ccccc1Cn1c(=O)n(CCC(C)C)c(=O)c2cccnc21,-1.66%
4,CC1C/C(=C\c2cccnc2)C(=O)/C(=C/c2cccnc2)C1 (stereo not shown),6.2%
5,CCC12CN3CC(C)(CN(C1)C3c1cccc(Br)c1)C2=O (stereo not shown),-3.08%
6,CC(CNC(=O)c1cccs1)NC(=O)c1cccs1 (stereo not shown),-1.79%
7,O=C1/C(=C/c2ccc3nccnc3c2)CN(Cc2ccccc2)C/C1=C\c1ccc2nccnc2c1,6.89%
8,N#CCNC(=O)[C@H](Cc1c[nH]c2ccccc12)NC(=O)c1ccccc1,-0.214%
9,CC1CN(C2CC(=O)N(c3ccccc3)C2=O)CC(C)O1 (stereo not shown),-2.53%
10,CC(=O)Nc1cc2c(s1)C1(CCCCC1)CC(=O)N2,-0.872%
11,Cc1cc(C)cc(N(CC(=O)NC2CC2)S(=O)(=O)c2ccccc2)c1,-6.86%
12,COc1ccc2c(C)c(CC(=O)N3CCCCC3)c(=O)oc2c1C,4.13%
13,COc1ccc(OC)c(/C=C2\N=C(C3CCCCC3)OC2=O)c1,6.25%
14,Cc1cc(C)cc(NCC(=O)Nc2c(C)cccc2C)c1,-7.55%
15,CCn1ncc(CN(C)C(=O)c2cnn3c(C(F)F)cc(-c4ccc(OC)cc4)nc23)c1C,1.28%
16,CCOC(=O)c1c(NC(=O)C(CC)Sc2nc(N)cc(O)n2)sc2c1CCCC2 (stereo not shown),1.63%
17,CC(=O)c1ccc(NC(=O)C2CC(=O)OC2c2ccccc2)cc1 (stereo not shown),-4.61%
18,COc1ccc(CC(=O)N(Cc2nc(-c3ccc(C)cc3)no2)C(C)C)cc1OC,-4.94%
19,Cc1ccc(Cl)cc1NC(=O)C1C2C=CC(C2)C1C(=O)O (stereo not shown),-3.49%
20,CCSC1=C(C#N)C(c2ccccc2)C(C(=O)Nc2ccccc2)=C(C)N1 (stereo not shown),-2.47%
21,Cc1ccc(OCCCn2ccnc2)c(C)c1,1.35%
22,CCOc1ccccc1C1C(C#N)=C(N)OC2=C1C(=O)CC(C)(C)C2 (stereo not shown),-4.33%
23,C=CCN1C(=O)NC(=O)/C(=C/c2ccc(OCc3ccc(Cl)cc3)cc2)C1=O,1.25%
24,c1ccc(-c2nc3c4ccccc4nc(NCCN4CCCC4)n3n2)cc1,0.981%
25,CCNC(=O)c1c(NC(=O)Cc2coc3ccc(C)cc23)sc2c1CCCC2,-0.671%

row,SMILES,% Inhibition @ 10 uM
1,COc1ccccc1CNC(=O)CN(Cc1ccccc1)S(=O)(=O)c1ccc(F)cc1,1.27%
2,O=C1/C(=C\c2ccccn2)CN(Cc2ccccc2)C/C1=C\c1ccccn1,55.7%
3,COc1ccc(NS(=O)(=O)c2ccc(NC(=O)c3ccccc3OC)cc2)c(OC)c1,4.57%
4,CCC(Cc1ccccc1)NC(=O)c1csc2c1CCCC2 (stereo not shown),0.277%
5,O=C(/C(=C/c1ccc(O)cc1)c1nc2ccccc2[nH]1)c1ccccc1,4.52%
6,Cc1ccc(CNCc2c(C(=O)O)c(C)n(Cc3ccccc3F)c2C)o1,-3.67%
7,C=C(NC(C)=O)C(=O)c1ccc([N+](=O)[O-])cc1,2.38%
8,CC1CN(C(=O)c2ccccc2)C(C)CN1C(=O)c1ccccc1 (stereo not shown),-6.05%
9,CCOC(=O)N1CCN(C(=O)CCCc2nnc3n(CCC(C)C)c(=O)c4sccc4n23)CC1,-6.08%
10,C[S+](O)c1ccc(OCC(=O)O)cc1 (stereo not shown),-4.02%
11,O=S(=O)(NC1CCCCC1)c1ccc2c(c1)OCCO2,0.147%
12,CC1CCN(c2c(S(=O)(=O)c3ccccc3)cnc3cc4c(cc23)OCCO4)CC1,-4.17%
13,Cc1noc2ncnc(NCc3ccc(F)cc3)c12,-4.4%
14,Nc1ccc2oc(-c3ccc(Cl)cc3)nc2c1,1.13%
15,COc1ccccc1C(=O)N/C(=C\c1ccc2c(c1)OCO2)C(=O)OC(C)C,-0.0626%
16,COc1ccc(OC)c(CNC(=O)Cn2cnc3onc(-c4ccc(F)cc4)c3c2=O)c1,-3.05%
17,CSc1ccccc1NC(=O)CN(C)S(=O)(=O)c1ccccc1,0.658%
18,COc1cc(OC)cc(C(=O)Nc2nc(C)c(C)s2)c1,-1.99%
19,CCCCCCn1c(=O)c(C(=O)Nc2cc(C)ccn2)c(O)c2ccccc21,5.31%
20,COc1ccc2nc(C)c(C(=O)OCCN(C)C)cc2c1,-4.62%
21,COc1cccc(-c2noc(-c3cc4cc(Br)ccc4oc3=O)n2)c1OC,6.05%
22,CCOc1cc2c(cc1OC)C(c1ccc(F)cc1)NCC2 (stereo not shown),0.83%
23,CC(C)C1=CC2=C(CC(C)(C)CC2=O)OC1N(C)C (stereo not shown),-7.27%
24,CC(C)(C)N1C(=O)c2ccc(C(=O)Nc3nccs3)cc2C1=O,2.01%
25,O=C1c2nccnc2C(O)N1c1ccc(Br)cn1 (stereo not shown),-1.08%

row,SMILES,% Inhibition @ 10 uM
1,N#Cc1c2n(c3c(=O)n(Cc4ccc(Cl)cc4)cnc13)CCCC2,7.1%
2,Cc1c(C#N)sc2nc(-c3ccccc3)nc(N)c12,2.16%
3,CCC(C)N(CCNC(=O)c1cc2c(s1)-c1ccccc1S(=O)(=O)C2)Cc1ccco1 (stereo not shown),2.57%
4,Cc1ccsc1CCNc1c(-c2ccc(C(C)C)cc2)c(=O)c1=O,0.867%
5,CC(Cc1ccccc1)[N+]1=NO/C(=N/C(N)=O)C1 (stereo not shown),2.35%
6,O=C(CSc1nnc(-c2ccc3c(c2)OCCO3)o1)NC1CCCCC1,1.8%
7,COc1ccc(-c2cc(C(F)(F)F)n3nc(C(=O)N4CCCCCC4)cc3n2)cc1,1.81%
8,Cc1coc(NC(=O)c2sc3nc(-c4ccncc4)cc(C(F)(F)F)c3c2N)n1,-1.1%
9,CC(C)CCNC(=O)C1c2ccccc2C(=O)N(C)C1c1cn(C)c2ccccc12 (stereo not shown),-4.53%
10,CCOC(=O)c1c(NC(=O)CSCc2nc(C)cc(C(F)(F)F)n2)sc2c1CCCCC2,2.8%
11,COc1ccc(-c2noc(N3CCCC(C(=O)NCCC4=CCCCC4)C3)n2)cc1 (stereo not shown),4.41%
12,Cc1ccc(C(=N)NOC(=O)c2ccc3c(c2)OCO3)n1C,0.9%
13,COc1ccc(NCc2cc(F)ccc2F)cc1,0.273%
14,Cc1cc(F)ccc1NCc1cccnc1,-4.18%
15,CC(C)CCNC(=O)c1cc2c(O)nc3ccccc3c2s1,4.51%
16,Cc1c(Cl)cccc1N(CC(=O)N1CCN(C)CC1)S(=O)(=O)c1ccccc1,-4.82%
17,O=C(NC1CC1)c1ccc(C2SCC(=O)N2CCc2ccccc2)cc1 (stereo not shown),0.843%
18,Fc1ccccc1COc1ccc(Cl)cc1CNCC1CCCO1 (stereo not shown),-3.45%
19,Cc1ccc(C(=O)C2=C(O)C(=O)N(CCc3ccccc3)C2c2ccncc2)cc1 (stereo not shown),-5.54%
20,CCc1nc2sc3c(c2c2nnc(C)n12)CCCC3,-2.59%
21,CSCC[C@@H](C(=O)O)N1Cc2ccccc2C1=O,0.708%
22,O=C(O)CN1C(=O)C2C3c4ccccc4C(c4ccccc43)C2C1=O (stereo not shown),-5.28%
23,CO/C(O)=C1\C(C)=NC2=C(C(=O)c3ccccc32)C1c1ccc(-c2ccc(Cl)cc2)o1 (stereo not shown),-3.14%
24,CCc1ccc2occ(CC(=O)N(Cc3ccc(C(C)C)cc3)C3CCS(=O)(=O)C3)c2c1 (stereo not shown),-4.19%
25,O=C(Cc1ccc(Cl)cc1)Nc1nc2ccccc2s1,2.02%

row,SMILES,% Inhibition @ 10 uM
1,O=C(c1nc2nc(-c3ccccc3)cc(C(F)(F)F)n2n1)N1CCCCC1,1.87%
2,COc1ccc(S(=O)(=O)Nc2ccc3c(c2)OCO3)cc1,-2.74%
3,CC(C)C[C@H](NC(=O)c1cccc(-c2ccc(S(=O)(=O)N3CCCC3)s2)c1)C(=O)NCC#N,1.35%
4,CC1=C(C(=O)OCc2ccc3c(c2)OCO3)C(c2c(F)cccc2Cl)CC(=O)N1 (stereo not shown),-0.472%
5,Cc1cccc(-c2ccc(C(=O)N[C@@H](CC(C)C)C(=O)NCC#N)cc2)c1C,-8.26%
6,COc1ccc(CNC(=O)CCn2c(=S)[nH]c3c([nH]c4ccc(OC)cc43)c2=O)cc1,-9.6%
7,CCCC1=C(C(=O)OCC)C(c2ccc(SC)cc2)C(C#N)=C(N)O1 (stereo not shown),-3.13%
8,COc1cccc(CN2CCN(Cc3cccc(C)c3)CC2)c1OC,-4.16%
9,CCn1c(C(=O)O)c(CNC2CCC(C)CC2)c2ccccc21 (stereo not shown),0.277%
10,CN(C)Cc1cc(CN(C)C)c(O)c(-c2ccccc2)n1,0.986% and -1.86%
11,Clc1cccc(OCCCCCN2CCCC2)c1,1.29%
12,COC(=O)c1cn(C(=O)/C=C/c2ccccc2)c2ccccc12,-4.51%
13,CCCc1ccc(OCC(=O)Nc2ccc(OC)cc2)cc1,-2.66%
14,CC1=C(C(=O)Nc2ccc(Cl)cc2)C(c2ccccc2)NC(S)=N1 (stereo not shown),-7.54%
15,O=C(Nc1ccc(Cl)cc1)c1c(O)nc2ccccc2c1O,-3.16%
16,Cc1ccnc(NS(=O)(=O)c2ccc(C(C)(C)C)cc2)c1,-2.66%
17,CCCSc1nc(O)cc(=O)n1C,-7.02%
18,CC1(C)CC(=O)C2=C(C1)OC(N)=C(C#N)C2(C(F)(F)F)C(F)(F)F,2.46%
19,Cc1c(C(=O)NCCc2ccccc2)oc2ccc3c(c12)C(=O)CC1(CCCC1)O3,3.87%
20,COc1cccc(C2CC(c3c(O)cc(C)oc3=O)=NCCS2)c1O (stereo not shown),-3.62%
21,CCOc1ccc2[nH]c3ccc4nonc4c3c2c1,1.54%
22,CC1CCC(N2CCC(O)CC2)CC1 (stereo not shown),-0.0908%
23,CCOc1cc(C2C(C(=O)OC)=CNC=C2C(=O)OC)ccc1O,-3.14%
24,Fc1ccc(-c2noc3ncnc(N4CCc5ccccc5C4)c23)cc1,3.26%
25,CCc1ccc(-n2c(C)cc(/C=C3\C(=N)N4N=C(N5CCOCC5)SC4=NC3=O)c2C)cc1,0.0579%
